These results are taken from the supplement of paper PMC7826260.

Some of the results follow. Each Rep nickase domain was tested in vitro on the same pool of single strands (3 µM enzyme, 1 h, 37 °C); shown is the middle of each 90-letter strand. Numbers give uncut DNA relative to the enzyme-free pool, as log2; more negative means more cut, near 0 not cut, and no call is made. Counts are relative to all reads, so uncut sequences can rise above 0 when many others are cut.

This assay relates to T1, Rep nickase domain of tomato golden mosaic virus.
T1 sequence (residues 1-124, tag not shown): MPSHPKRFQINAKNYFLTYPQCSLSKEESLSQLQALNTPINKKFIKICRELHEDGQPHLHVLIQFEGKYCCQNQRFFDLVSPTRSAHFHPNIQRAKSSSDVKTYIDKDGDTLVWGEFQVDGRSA
As to the kind of experiment: uncleaved DNA left, log2 of reads against the no-enzyme library (log2 ratio); higher = less cleavage (more negative = more Rep cleavage of the k-mer); sequences stand for … in CTCGTCCG…ACCGGAGA
The method, then: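 A pool of 90-nt single-stranded DNAs with seven random bases just before the constant AC of the nick site (name = the seven bases) was cut by 3 µM recombinant His6-SUMO-tagged Rep nickase domain (300 nM DNA, 50 mM HEPES pH 8.0, 50 mM NaCl, 1 mM MnCl2, 1 h, 37 °C, three replicates). Uncut DNA was amplified and sequenced.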
Turning to ATGAAAT, the “uncleaved DNA left (log2)” value worked out at 0.0704. With CCCGGGG the figure was 0.0196; with ACGACGA, -0.0989; with ATGCACT, -0.204. With TAATGAC the figure was -0.276; with GGACAGC, -0.0108. As to TCAAAAT, the “uncleaved DNA left (log2)” value turned out to be 0.0121. As to TTGCTGC, the “uncleaved DNA left (log2)” value was -0.08. With GCAGTTA the figure was 0.0681.

For ACATCGT, the “uncleaved DNA left (log2)” value was -0.0309. In the case of GTGTCCC it was 0.151; in that of GGCAGCA, 0.0781. For the sequence CTGGAGG, the “uncleaved DNA left (log2)” value turned out to be 0.1.

As to GCTTGAC, the “uncleaved DNA left (log2)” value was -0.0365. In the case of GGGCCGA it was 0.188; in that of CTACACA, -0.167; in that of CTAGATG, 0.0754. As to CACGCAT, the “uncleaved DNA left (log2)” value is -0.0124. As for CGGGACG, the “uncleaved DNA left (log2)” value was 0.109. With TATACAT the figure was 0.00383. Turning to GCTAACG, the “uncleaved DNA left (log2)” value is -0.0555.

Regarding CCACTAT, the “uncleaved DNA left (log2)” value was -0.00706. For TACGAAC, the “uncleaved DNA left (log2)” value is -0.0645. Turning to GTACCAG, the “uncleaved DNA left (log2)” value is -0.00618.

On to TTAGTAG, for which the “uncleaved DNA left (log2)” value is -0.0781. Turning to AGCCATG, the “uncleaved DNA left (log2)” value amounted to 0.0223. With TAGTGTA the figure was 0.0173; with GCCTCGA, 0.169; with CTTATGT, -0.153. In the case of CACTATA, the “uncleaved DNA left (log2)” value was determined as 0.00943. In the case of ACATGTG it was 0.083.

On to CCAGGCT, for which the “uncleaved DNA left (log2)” value came out at 0.161.

For TGGCGGC, the “uncleaved DNA left (log2)” value came out at 0.0472.

For the sequence AAGACGC, the “uncleaved DNA left (log2)” value was -0.000624. With AATACAT the figure was -0.00144; with AAACATA, -0.0641; with CACTGGA, 0.0243. In the case of TCGCAGG it was -0.000436.

Turning to AGTGACC, the “uncleaved DNA left (log2)” value turned out to be 0.0595. With GGTCTCT the figure was 0.0375.
